From article PMC9911399, “Two distinct binding modes provide the RNA-binding protein RbFox with extraordinary sequence specificity”
Numbering of substitutions follows the chain as printed; changes in the protein carry UniProt numbers. The list shows a part of the results.

B1: GAACUAG (DNA:RNA)
RNA: GGGAGACCGGAAUUCAGAUUGUCCGAACUAGUUAAAUCCCGUCGUAGCCACCA
DNA 1: CAATCTGAATTCCGGTCTCCC
DNA 2: TGGTGGCTACGACGGGATT
B2: GUCAUGU (DNA:RNA)
RNA: B1 RNA with A26U, A27C, C28A, A30G, G31U
DNA 1: CAATCTGAATTCCGGTCTCCC
DNA 2: TGGTGGCTACGACGGGATT
B3: ACAAUGC (DNA:RNA)
RNA: B1 RNA with G25A, A26C, C28A, A30G, G31C
DNA 1: CAATCTGAATTCCGGTCTCCC
DNA 2: TGGTGGCTACGACGGGATT
B4: GGGCGCC (DNA:RNA)
RNA: B1 RNA with A26G, A27G, U29G, A30C, G31C
DNA 1: CAATCTGAATTCCGGTCTCCC
DNA 2: TGGTGGCTACGACGGGATT
B5: CCGUGGC (DNA:RNA)
RNA: GGGAGACCGGAAUUCAGAUUGUCCCCGUGGCUUAAAUCCCGUCGUAGCCACCA
DNA 1: CAATCTGAATTCCGGTCTCCC
DNA 2: TGGTGGCTACGACGGGATT
B6: GUUCGUA (DNA:RNA)
RNA: B1 RNA with A26U, A27U, U29G, A30U, G31A
DNA 1: CAATCTGAATTCCGGTCTCCC
DNA 2: TGGTGGCTACGACGGGATT
B7: CGCCGAA (DNA:RNA)
RNA: B5 RNA with C26G, G27C, U28C, G30A, C31A
DNA 1: CAATCTGAATTCCGGTCTCCC
DNA 2: TGGTGGCTACGACGGGATT
B8: UCGGGCA (DNA:RNA)
RNA: B5 RNA with C25U, U28G, G30C, C31A
DNA 1: CAATCTGAATTCCGGTCTCCC
DNA 2: TGGTGGCTACGACGGGATT
B9: CGAAUCA (DNA:RNA)
RNA: B1 RNA with G25C, A26G, C28A, A30C, G31A
DNA 1: CAATCTGAATTCCGGTCTCCC
DNA 2: TGGTGGCTACGACGGGATT

What follows are binders tested against T1, RBFOX1 RRM (Homo sapiens, UniProt Q9NWB1 109-208) (assay: EMSA; HiTS-Eq, 1 nM pool, 10 min; buffer printed only for the single-RNA assays: 10 mM Tris pH 7.5, 150 mM NaCl, 3.4 mM EDTA, 0.001% NP-40, 30 C). Details: tags: His6 N-terminal (pET28a); label: 5' 32P.
T1 sequence: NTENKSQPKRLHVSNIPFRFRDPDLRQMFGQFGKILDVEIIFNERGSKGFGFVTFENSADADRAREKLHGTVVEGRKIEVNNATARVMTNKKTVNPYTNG
Method in brief: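 A pool of RNA with 7 randomized nucleotides, 5′-radiolabelled and with DNA-annealed flanks, was equilibrated at 1 nM for 10 min in 50 µL with purified RbFox RRM, wild type or mutant, across increasing protein concentrations. Free RNA was separated by 8% native PAGE, excised, reverse-transcribed, barcoded by PCR and sequenced. Relative association constants were obtained from read-count changes of each RNA species versus the control reaction and normalised to the cognate motif.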

Row | Binder | binding signal
1 | B1 | 0.0127 KA relative to UGCAUGU
2 | B2 | 0.0129 KA relative to UGCAUGU
3 | B3 | 0.00386 KA relative to UGCAUGU
4 | B4 | 0.019 KA relative to UGCAUGU
5 | B5 | 0.00631 KA relative to UGCAUGU
6 | B6 | 0.0142 KA relative to UGCAUGU
7 | B7 | 0.00918 KA relative to UGCAUGU
8 | B8 | 0.00559 KA relative to UGCAUGU
9 | B9 | 0.00409 KA relative to UGCAUGU
